Assay results from PubChem BioAssay AID1671193 (National Center for Advancing Translational Sciences (NCATS), 2021).
Screen size: about 150,000 compounds; about 180 (0.12%) were called active. Inconclusive results, whose numbers are uncertain, are shown with a selection of clear calls. The call rests on the fitted dose curve; in most records, active means well fitted cell-killing curve with a large enough effect; inconclusive means small, poorly fitted or top-dose-only effect, or effect the other way; inactive means flat fitted curve, though single readings scatter. A potency beside an inconclusive call is a rough fit, not a confirmed value.

test: GF-AFC viability counterscreen for inhibitors of alpha-synuclein gene (SNCA) expression; conditions: HEK-293-SNCA-luc viability, GF-AFC fluorescence, 24 h; series mostly up to 57.1 µM; further: nearly all actives have a fitted effect of over 30% in size
Outline: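 Cytotoxicity counterscreen: after 24 h compound treatment of genome-edited SNCA-luciferase HEK-293 cells, live-cell protease substrate GF-AFC read by fluorescence after 30 min; activity scaled between DMSO (0%) and medium-only (-100%), curves Hill-fitted.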
Potency means the concentration at half of the fitted maximal effect; tags describe the fitted curve by direction and shape.

SMILES | Potency
Cc1ccccc1-c1[nH]nc2ncc(-c3ccccc3F)nc12 | inactive
COc1ccc(CCNC(=O)c2ccc3nnc(-c4cccc(C(F)(F)F)c4)n3c2)cc1 | inconclusive: 31.6 µM [cytotoxic, partial curve, poor fit]
CC(C)(C)C(=O)Cn1c(=O)n(CCCCCC(=O)NCc2ccc3c(c2)OCO3)c(=O)c2sccc21 | inconclusive: 35.5 µM [cytotoxic, partial curve, poor fit]
COc1cccc(CNC(=O)C2CCCN(Cc3cccc(-c4ccccc4OC)c3)C2)c1 (stereo unspecified) | inactive
Cc1[nH]c2c(c1C(=O)N1CCCC(CCc3ccc(F)cc3)C1)C(=O)CCC2 (stereo unspecified) | inconclusive: 22.4 µM [cytotoxic, partial curve, poor fit]
COc1ccc(-c2cc3c(ccn3C)c(C(=O)NCc3cccnc3)n2)cc1 | inactive
COc1ccccc1C(=O)N1CCCC1C(=O)N1CCC(c2nc3ncccc3[nH]2)CC1 (stereo unspecified) | inactive
O=C(c1ccccc1)N1CCC(n2cc(-c3nc(-c4ccccc4)no3)nn2)CC1 | inactive
C=C(C(=O)OC)[C@@H]1CC=C2C=CC(=O)[C@H](C)[C@@]2(C)C1 | inactive
O=C(NCc1ccc(F)cc1)c1ccc(CSc2nc3ccncc3n2Cc2ccc(F)cc2)cc1 | inconclusive: 39.8 µM [cytotoxic, single point]
COc1c(Cl)cc(C(=O)Nc2cccc(-c3nc4ccccc4[nH]3)c2)cc1Cl | inconclusive: 39.8 µM [cytotoxic, single point]
O=C1c2cnc(-c3ccc(CO)cc3)nc2OCCN1Cc1ccc(F)cc1F | inconclusive: 25.1 µM [cytotoxic, partial curve, poor fit]
Cc1cc(C)c(S(=O)(=O)Nc2cc(-c3cn4ccccc4n3)ccc2C)cc1C | inconclusive: 31.6 µM [cytotoxic, single point]
Cc1nnc(N2CCCC(C(=O)Nc3ccccc3C(F)(F)F)C2)c2nn(-c3ccccc3)c(C)c12 (stereo unspecified) | inconclusive: 7.08 µM [cytotoxic, full curve]
CCOc1ccccc1N1CC(c2nc3ccccc3n2CCOc2ccc(OC)cc2)CC1=O (stereo unspecified) | inconclusive: 35.5 µM [cytotoxic, single point]
Cc1cccc(C(=O)Nc2c(-c3ccc(F)cc3)nc3ccccn23)c1 | inconclusive: 2.82 µM [cytotoxic, full curve]
COc1ccc(NC(=O)CSc2nc3ccccc3n2CC(=O)N2CCCC(C)C2)cc1 (stereo unspecified) | inconclusive: 2.82 µM [cytotoxic, full curve, poor fit]
Cc1cccc(CSc2nc3cccnc3n2Cc2ccc(C(=O)NCc3cccs3)cc2)c1 | inconclusive: 25.1 µM [cytotoxic, partial curve]
COc1cccc(-c2ccc3c(N)c(C(=O)Nc4ccc(Cl)cc4F)sc3n2)c1 | inconclusive: 15.8 µM [rising, partial curve]
NCCCC(=O)N1CCCC(N2CCN(c3cccc(Cl)c3)CC2)C1 (stereo unspecified) | inconclusive: 1.41 µM [rising, full curve, poor fit]
CC(C)Cn1c(=O)c2sccc2n2c(CCCC(=O)NCC(C)c3ccccc3)nnc12 (stereo unspecified) | inconclusive: 15.8 µM [cytotoxic, partial curve, poor fit]

SMILES | Potency
O=C(NCCn1cccc1-c1nc(-c2ccc3c(c2)OCO3)no1)c1ccc(Cl)s1 | inconclusive: 39.8 µM [cytotoxic, single point]
COCC(=O)N(C1CCOCC1)C1CCN(C(=O)Cc2ccsc2)CC1 | inconclusive: 31.6 µM [cytotoxic, single point]
COc1ccc(Cn2cc(C(=O)c3ccc(Cl)cc3)c(=O)c3cc4c(cc32)OCO4)cc1 | inconclusive: 39.8 µM [cytotoxic, partial curve, poor fit]
COc1ccc(-n2c(=O)c(C)nc3cnc(Nc4cccc(OC)c4)nc32)cc1 | inconclusive: 7.08 µM [cytotoxic, single point]
O=C(NCCc1ccc(Cl)cc1)c1nc(-c2cccc(C(F)(F)F)c2)c2cnccn12 | inactive
COc1ccc(OC)c(CNc2ncc(-c3ccc(Cl)cc3)n2C)c1 | inconclusive: 0.316 µM [rising, full curve, poor fit]
CCN1CCC(CCNC(=O)C2CCCN(C(=O)c3ccccc3)CCC(=O)NCC2)CC1 (stereo unspecified) | inactive
COc1cccc(C(=O)c2cn(CC(=O)Nc3ccc4c(c3)OCCO4)c3nc(C)ccc3c2=O)c1 | inconclusive: 14.1 µM [cytotoxic, partial curve, poor fit]
COc1ccc(C(=O)Nc2ccc3c(c2)CN(Cc2ccc(F)cc2)C(=O)C(C)O3)c(OC)c1 (stereo unspecified) | inconclusive: 28.2 µM [cytotoxic, partial curve, poor fit]
O=C(C1CCCN1C(=O)c1ccc(F)cc1)N1CCC(c2nc3ccncc3[nH]2)C1 (stereo unspecified) | inconclusive: 4.47 µM [cytotoxic, single point]
O=C(Cc1ccc(F)cc1)NCCc1csc2nc(-c3ccc(Cl)cc3)nn12 | inconclusive: 6.31 µM [cytotoxic, full curve, poor fit]
O=C(Nc1ccnn1C1CCN(Cc2nccs2)CC1)c1ccc2c(c1)OCO2 | inconclusive: 8.91 µM [cytotoxic, partial curve, poor fit]
CC1=C[C@@H]2[C@@H]([C@@H](O)C[C@@]3(C)[C@H]2C[C@@H](C)[C@]3(O)C(=O)CO)[C@@]2(C)Cc3cnn(-c4ccccc4)c3C=C12 | inconclusive: 15 µM [cytotoxic, partial curve, poor fit]
CN1CCN(c2cc(C(=O)Nc3ccc4c(c3)-c3c(c(C(N)=O)nn3-c3ccc(F)cc3)CC4)c(Cl)cn2)CC1 | inconclusive: 21.5 µM [cytotoxic, partial curve]
O=C(NC1CC1)c1cn2cc(-c3ccccc3)sc2n1 | inactive
O=C(NCc1ccccc1)c1nc2c(o1)CCN(Cc1c(F)cccc1F)CC2 | inactive
CCc1cc2c(-c3ccccc3)cc(=O)oc2c2c1OCN(Cc1ccc(C)cc1)C2 | inconclusive: 17.8 µM [rising, partial curve, poor fit]
Cc1ncc2c(c1CNC(=O)c1ccc3c(c1)OCO3)CCN(C(=O)CC1NC(=O)c3ccccc31)C2 (stereo unspecified) | inconclusive: 3.16 µM [cytotoxic, single point]
O=C(NCCc1ccc(Cl)cc1)c1ccc2c(c1)N(Cc1ccccc1)C(=O)CS2 | inconclusive: 25.1 µM [cytotoxic, partial curve, poor fit]
COc1ccccc1NC(=O)C1=C(C)Nc2nc(SCc3ccccc3)nn2C1c1cccs1 (stereo unspecified) | inconclusive: 0.316 µM [rising, full curve]
Cc1ncsc1CCC(=O)N1CC[C@@H]2[C@@H](CCC(=O)N2CCN)C1 | inconclusive: 0.631 µM [cytotoxic, partial curve, poor fit]

SMILES | Potency
CC1(C(=O)N2CCC(c3ccccc3)CC2)CCc2cnc(N3CCOCC3)nc21 (stereo unspecified) | inactive
CN1CCN(c2cc(=O)c3ccnc(Nc4ccccn4)c3o2)CC1 | inactive
O=c1ccc2ccc(O)c(O)c2o1 | inconclusive: 6.31 µM [cytotoxic, single point]
CC(=O)N1CCN(C(=O)Cc2ccc(Nc3ncc(F)c(Nc4ccc(C(=O)Nc5ccccc5Cl)cc4)n3)cc2)CC1 | inconclusive: 3.36 µM [cytotoxic, full curve, poor fit]
Cc1ccccc1-c1cn(C)c(=O)n2cc(COc3ccc(Cl)cc3)nc12 | inconclusive: 5.01 µM [cytotoxic, full curve, poor fit]
CC1=C[C@@H](CNC(=O)C(C)(C)C)[C@H](C(C)C)C[C@H]1Cc1nnc(-c2ccccc2F)o1 | inconclusive: 11.2 µM [cytotoxic, partial curve]
O=C(C[C@@H]1CCNC[C@@H]1Cc1cc(CSc2ccccc2)on1)NCc1ccc(F)cc1 | inactive
COc1ccc(-c2cc(N3CCCC(NC(=O)c4ccoc4)C3)n[nH]2)cc1 (stereo unspecified) | inactive
CN1CCN(c2ncc3nc(-c4cccs4)c(=O)n(CCc4ccccc4)c3n2)CC1 | inconclusive: 14.1 µM [rising, partial curve]
COc1ccc(CCCNc2cc(C3CC(O)C3)ncn2)cc1 (stereo unspecified) | inactive
O=C(C1CC=CCC1)N1CCc2[nH]nc(-c3ccc(C(F)(F)F)cc3)c2C1 (stereo unspecified) | inactive
COc1ccc(-c2cc(C(F)(F)F)n3nc(C(=O)Nc4cccc(Cl)c4Cl)cc3n2)cc1OC | inconclusive: 15.8 µM [rising, partial curve, poor fit]
COc1cccc(CC(=O)N2CCCn3nc(C)c(-c4ccccc4OCc4ccccc4)c32)c1 | inconclusive: 25.1 µM [cytotoxic, single point]
COC(=O)[C@H](Cc1ccc(OC)cc1)NC(=O)[C@H]1CN(C(=O)Nc2ccccc2)CCN1C(=O)NC(C)C | inconclusive: 8.91 µM [cytotoxic, partial curve, poor fit]
O=S(=O)(c1cccc2c(I)cccc12)N1CCCNCC1 | inconclusive: 39.8 µM [cytotoxic, single point]
Cc1nn(C)cc1CN(C)C(=O)c1cc2cn(C(C)C)cc2s1 | inactive
CCOc1ccc(NC(=O)Cn2c(-c3ccc(F)cc3)nc(C)cc2=O)cc1 | inconclusive: 2 µM [cytotoxic, full curve]
COc1ccccc1NC(=O)Nc1cccc(-c2nnc3n2CCCC3)c1 | inactive
COc1cccc(-c2c(C(=O)NCc3ccc(F)cc3)nc3sccn23)c1 | inconclusive: 39.8 µM [cytotoxic, single point]
